# According to the supplement of paper PMC8728848:
# This is one part of the list.
# B1: Lam16A (Thermotoga maritima), Q9WXN1 (protein)
# chain: EQINNGTFDEPIVNDQANNPDEWFIWQAGDYGISGARVSDYGVRDGYAYITIADPGTDTWHIQFNQWIGLYRGKTYTISFKAKADTPRPINVKILQNHDPWTNYFAQTVNLTADWQTFTFTYTHPDDADEVVQISFELGEGTATTIYFDDVTVSPQ
# Assays:
# Assay in all cases: glycan array binding signal (z-score within array); higher = stronger binding
# Conditions in all cases: glycan notation: IUPAC condensed, linker removed
# Glc(a1-2)Glc = target: Glc(a1-2)Glc
# Method in brief: (§1)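 The binding signal is a Z-score computed within each array and averaged over linkers. Arrays of the same protein sequence at different concentrations or buffers were also averaged together. Data originate from 3228 arrays in the Consortium for Functional Glycomics database, kept only where the protein sequence was available.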
# Glc(a1-2)Glc(a1-2)Glc = target: Glc(a1-2)Glc(a1-2)Glc
# Method in brief: as §1
# [1] = target: Glc(a1-2)Glc(a1-2)Glc(a1-2)Glc
# Method in brief: as §1
# [2] = target: Glc(a1-2)Glc(a1-2)Glc(a1-2)Glc(a1-2)Glc
# Method in brief: as §1
# [3] = target: Glc(a1-2)Glc(a1-2)Glc(a1-2)Glc(a1-2)Glc(a1-2)Glc
# Method in brief: as §1
# [4] = target: Glc(a1-2)Glc(a1-2)Glc(a1-2)Glc(a1-2)Glc(a1-2)Glc(a1-2)Glc
# Method in brief: as §1
# [5] = target: Glc(a1-2)Glc(a1-2)Glc(a1-2)Glc(a1-2)Glc(a1-2)Glc(a1-2)Glc(a1-2)Glc
# Method in brief: as §1
# [6] = target: Glc(a1-2)Glc(a1-2)Glc(a1-2)Glc(a1-2)Glc(a1-2)Glc(a1-2)Glc(a1-2)Glc(a1-2)Glc
# Method in brief: as §1
# Glc(a1-3)Glc = target: Glc(a1-3)Glc
# Method in brief: as §1
# Glc(a1-3)Glc(a1-3)Glc = target: Glc(a1-3)Glc(a1-3)Glc
# Method in brief: as §1
# [7] = target: Glc(a1-3)Glc(a1-3)Glc(a1-3)Glc
# Method in brief: as §1
# [8] = target: Glc(a1-3)Glc(a1-3)Glc(a1-3)Glc(a1-3)Glc
# Method in brief: as §1
# [9] = target: Glc(a1-3)Glc(a1-3)Glc(a1-3)Glc(a1-3)Glc(a1-3)Glc
# Method in brief: as §1
# [10] = target: Glc(a1-3)Glc(a1-3)Glc(a1-3)Glc(a1-3)Glc(a1-3)Glc(a1-3)Glc
# Method in brief: as §1
# [11] = target: Glc(a1-3)Glc(a1-3)Glc(a1-3)Glc(a1-3)Glc(a1-3)Glc(a1-3)Glc(a1-3)Glc
# Method in brief: as §1
# [12] = target: Glc(a1-3)Glc(a1-3)Glc(a1-3)Glc(a1-3)Glc(a1-3)Glc(a1-3)Glc(a1-3)Glc(a1-3)Glc
# Method in brief: as §1
# [13] = target: Glc(a1-3)Glc(a1-3)Glc(a1-3)Glc(a1-3)Glc(a1-3)Glc(a1-3)Glc(a1-3)Glc(a1-3)Glc(a1-3)Glc
# Method in brief: as §1
# [14] = target: Glc(a1-3)Glc(a1-3)Glc(a1-3)Glc(a1-3)Glc(a1-3)Glc(a1-3)Glc(a1-3)Glc(a1-3)Glc(a1-3)Glc(a1-3)Glc
# Method in brief: as §1
# [15] = target: Glc(a1-3)Glc(a1-3)Glc(a1-3)Glc(a1-3)Glc(a1-3)Glc(a1-3)Glc(a1-3)Glc(a1-3)Glc(a1-3)Glc(a1-3)Glc(a1-3)Glc
# Method in brief: as §1
# [16] = target: Glc(a1-3)Glc(a1-3)Glc(a1-3)Glc(a1-3)Glc(a1-3)Glc(a1-3)Glc(a1-3)Glc(a1-3)Glc(a1-3)Glc(a1-3)Glc(a1-3)Glc(a1-3)Glc
# Method in brief: as §1
# Glc(a1-4)Glc = target: Glc(a1-4)Glc
# Method in brief: as §1
# Glc(a1-4)Glc(a1-4)Glc = target: Glc(a1-4)Glc(a1-4)Glc
# Method in brief: as §1
# [17] = target: Glc(a1-4)Glc(a1-4)Glc(a1-4)Glc
# Method in brief: as §1
# [18] = target: Glc(a1-4)Glc(a1-4)Glc(a1-4)Glc(a1-4)Glc
# Method in brief: as §1
# [19] = target: Glc(a1-4)Glc(a1-4)Glc(a1-4)Glc(a1-4)Glc(a1-4)Glc
# Method in brief: as §1
# [20] = target: Glc(a1-4)Glc(a1-4)Glc(a1-4)Glc(a1-4)Glc(a1-4)Glc(a1-4)Glc
# Method in brief: as §1
# [21] = target: Glc(a1-4)Glc(a1-4)Glc(a1-4)Glc(a1-4)Glc(a1-4)Glc(a1-4)Glc(a1-4)Glc
# Method in brief: as §1
# [22] = target: Glc(a1-4)Glc(a1-4)Glc(a1-4)Glc(a1-4)Glc(a1-4)Glc(a1-4)Glc(a1-4)Glc(a1-4)Glc
# Method in brief: as §1
# [23] = target: Glc(a1-4)Glc(a1-4)Glc(a1-4)Glc(a1-4)Glc(a1-4)Glc(a1-4)Glc(a1-4)Glc(a1-4)Glc(a1-4)Glc
# Method in brief: as §1
binder,measurement,setting,value
B1,glycan array binding signal (z-score),Glc(a1-2)Glc,-0.373
same,glycan array binding signal (z-score),Glc(a1-2)Glc(a1-2)Glc,-0.373
same,glycan array binding signal (z-score),[1],-0.373
same,glycan array binding signal (z-score),[2],-0.373
same,glycan array binding signal (z-score),[3],-0.373
same,glycan array binding signal (z-score),[4],-0.373
same,glycan array binding signal (z-score),[5],-0.373
same,glycan array binding signal (z-score),[6],-0.373
same,glycan array binding signal (z-score),Glc(a1-3)Glc,-0.373
same,glycan array binding signal (z-score),Glc(a1-3)Glc(a1-3)Glc,-0.373
same,glycan array binding signal (z-score),[7],-0.373
same,glycan array binding signal (z-score),[8],-0.371
same,glycan array binding signal (z-score),[9],-0.373
same,glycan array binding signal (z-score),[10],-0.373
same,glycan array binding signal (z-score),[11],-0.373
same,glycan array binding signal (z-score),[12],-0.373
same,glycan array binding signal (z-score),[13],-0.373
same,glycan array binding signal (z-score),[14],-0.373
same,glycan array binding signal (z-score),[15],-0.37
same,glycan array binding signal (z-score),[16],-0.373
same,glycan array binding signal (z-score),Glc(a1-4)Glc,-0.373
same,glycan array binding signal (z-score),Glc(a1-4)Glc(a1-4)Glc,-0.373
same,glycan array binding signal (z-score),[17],-0.373
same,glycan array binding signal (z-score),[18],-0.373
same,glycan array binding signal (z-score),[19],-0.373
same,glycan array binding signal (z-score),[20],-0.368
same,glycan array binding signal (z-score),[21],-0.368
same,glycan array binding signal (z-score),[22],-0.373
same,glycan array binding signal (z-score),[23],-0.363
